Laboratory results taken from PubChem BioAssay AID887 (National Center for Advancing Translational Sciences (NCATS), 2007).
Among all 74,000 compounds or so, about 1,100 (1.5%) were called active. This list was built around the results that the source calls inconclusive (neither active nor inactive); the mix of calls is not that of the screen. The call rests on the fitted dose curve; in most records, active means well fitted inhibition curve with a large enough effect; inconclusive means small, poorly fitted or top-dose-only effect; inactive means no such curve, though single readings can be large or run the other way. No potency is given beside an inconclusive call; the fits are too rough. Where a structure was tested more than once in an assay, its records may differ in their call.

What follows are molecules tested against Polyunsaturated fatty acid lipoxygenase ALOX15 (Homo sapiens) (UniProt P16050) (assay: qHTS Assay for Inhibitors of 15-hLO (15-human lipoxygenase)). Conditions: purified 15hLO-1, xylenol orange hydroperoxide absorbance; activity change, negative = inhibition: at 57.1 µM (top of the series) unless noted.
UniProt P16050, sequence (P16050 whole entry, looked up): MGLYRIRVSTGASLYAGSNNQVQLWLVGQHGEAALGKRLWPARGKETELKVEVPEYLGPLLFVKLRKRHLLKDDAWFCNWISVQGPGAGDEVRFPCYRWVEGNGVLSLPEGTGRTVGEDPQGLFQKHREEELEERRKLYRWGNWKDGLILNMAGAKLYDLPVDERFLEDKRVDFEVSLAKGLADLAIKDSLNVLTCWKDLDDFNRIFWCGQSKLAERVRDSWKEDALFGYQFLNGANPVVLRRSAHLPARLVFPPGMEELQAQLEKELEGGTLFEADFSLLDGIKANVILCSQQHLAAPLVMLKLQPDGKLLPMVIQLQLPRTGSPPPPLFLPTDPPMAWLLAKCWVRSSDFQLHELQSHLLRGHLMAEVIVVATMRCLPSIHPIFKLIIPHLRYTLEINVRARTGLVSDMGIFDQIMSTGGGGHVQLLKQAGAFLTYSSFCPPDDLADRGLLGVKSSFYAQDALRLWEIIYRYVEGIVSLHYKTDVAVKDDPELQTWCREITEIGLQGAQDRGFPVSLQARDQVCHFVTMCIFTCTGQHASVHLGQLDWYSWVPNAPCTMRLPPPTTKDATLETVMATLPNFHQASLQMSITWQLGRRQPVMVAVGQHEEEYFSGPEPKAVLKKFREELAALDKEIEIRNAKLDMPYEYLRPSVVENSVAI
How it was run: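 Readout: Fe(III)-xylenol orange absorbance, 573-to-405 nm ratio as reaction progress. Enzyme 40 nM purified human 15hLO-1, substrate 50 uM arachidonic acid, 6 min RT after 15 min compound preincubation; Hepes pH 7.5 buffer with Triton X-100.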
Further: nearly all actives have a fitted effect of over 55% in size.
On the % scale 0 is the no-effect control and ±100 the full control effect; potency means the concentration at half of the fitted maximal effect; tags describe the fitted curve by direction and shape.

| SMILES | Potency | activity change, negative = inhibition |
| --- | --- | --- |
| COc1ccc(C)cc1-n1c(SCC(=O)Nc2cc(C)on2)nc2sc(C)c(C)c2c1=O | inconclusive [inhibitor, single point] |  |
| CCOC(=O)N/N=C1/C[C@@H](O)[C@@H](O)[C@@H]2[C@@H]3C(=O)N(CC)C(=O)[C@H]3CC[C@@H]12 |  | inactive: 7.55% [at 11.4 µM] |
| CC(NC(=O)CC1Nc2ccccc2NC1=O)c1ccccc1 (stereo unspecified) | inconclusive [inhibitor, single point] |  |
| Nc1cc(CN2C(=O)c3ccccc3C2=O)cc(Cl)c1O | active: 10 µM |  |
| COc1cccc(-c2cn3nc4c(nc3n2)CCCC4)c1 |  | inactive: -7.47% |
| O=c1c(O)c(-c2ccc(O)c(O)c2)oc2c(OC[C@@H]3O[C@@H](O)[C@@H](O)[C@H](O)[C@H]3O)c(O)cc(O)c12 | inconclusive [inhibitor, single point] |  |
| CC(=O)c1c(N)[nH]c(-c2ccccc2)nc1=S | inconclusive [inhibitor, partial curve] |  |
| CCCS(=O)(=O)c1c(S(=O)(=O)CCC)c2c(N)cccn2c1C(=O)c1ccc(F)cc1 | active: 10 µM |  |
| COC(=O)c1ccc(C(/C=C/[C@@H](C)C(=O)N(C)C)NC(=O)OCc2ccccc2)cc1 (stereo partly specified) |  | inactive: -5.92% |
| O=C(O)Cc1ccc2[nH]c3ccc(CC(=O)O)cc3c2c1 |  | inactive: 6.36% |
| CCC(c1nnnn1Cc1ccccc1)N(Cc1cc2cc(OC)ccc2[nH]c1=O)CC1CCCO1 (stereo unspecified) | inconclusive [inhibitor, single point] |  |
| CC(=O)NCCN=C(C)c1sc2ccccc2c1O | inconclusive [inhibitor, single point] |  |
| CCOC(=O)c1cccc(NC(=O)CSc2nnc(CNc3ccc(C)cc3)n2CC)c1 | active: 12.6 µM |  |
| COC(=O)c1ccc(NC(=O)C(C)N2C(=O)c3ccccc3C2=O)cc1 (stereo unspecified) | inconclusive [inhibitor, single point] |  |
| CCCn1c(C)nc2c(NCCCCN(CC)CC)nc(C)nc21 | inconclusive [inhibitor, single point] |  |
| O=c1cc(-c2ccc(O)cc2)oc2cc(O)cc(O)c12 | active: 5.01 µM |  |
| CCOc1cccc2cc(C(=O)N3CCc4ccccc4C3)c(=O)oc12 | inconclusive [inhibitor, single point] |  |
| O=C(CSc1nnc(-c2ccco2)n1Cc1ccccc1)c1ccc(F)cc1 | inconclusive [inhibitor, single point] |  |
| COc1ccc(CNc2ncnc3ccc(-c4ccc(N(C)C)cc4)cc23)c(OC)c1 | inconclusive [inhibitor, single point] |  |
| CC1=C(C(=O)OCc2ccccc2)C(c2ccc(C(C)(C)C)cc2)NC(=O)N1CCCCCC(=O)O (stereo unspecified) | inconclusive [inhibitor, single point] |  |
| CCOc1cccc(C(=O)c2ccc(O)c(O)c2O)c1 | active: 12.6 µM |  |
| Cc1cccc(-n2c(SCC(=O)Nc3nonc3C)nnc2-c2ccoc2C)c1 | inconclusive [inhibitor, full curve] |  |
| CC1=C2C(CCS2(=O)=O)CC2(C1)C(=O)OC(C)(C)OC2=O (stereo unspecified) |  | inactive: -23.5% |

| SMILES | Potency | activity change, negative = inhibition |
| --- | --- | --- |
| CCOc1cc(C(=S)N2CCOCC2)ccc1O | inconclusive [inhibitor, partial curve] |  |
| Cc1ccccc1N=C(N)Nc1ccccc1C | inconclusive [inhibitor, partial curve] |  |
| O=C(c1ccccc1)c1ccc(N2CCCC2)cc1 | inconclusive [inhibitor, single point] |  |
| CCOC(=O)N1CCc2c(sc3c2C(=O)NC(c2ccc(-c4ccc(Cl)cc4)o2)N3)C1 (stereo unspecified) |  | inactive: -2.36% |
| COc1ccccc1-c1cncnc1Nc1ccc(F)cc1 |  | inactive: -14.9% |
| COc1ccc(OC)c(NC(=O)N[C@@H](Cc2ccccc2)C(=O)O)c1 | inconclusive [inhibitor, single point] |  |
| CCN1CCc2c(sc(N)c2C#N)C1 | inconclusive [inhibitor, partial curve] |  |
| CNC(=O)c1cc2cc(OC)ccc2n1CCN(C)C |  | inactive: -29.1% |
| S=C(Nc1ccccn1)c1ccccn1 |  | inactive: -17.1% |
| Oc1ccc(N2CCN(c3ncnc4sc5c(c34)CCC5)CC2)cc1 | active: 3.16 µM |  |
| NC(=O)OC[C@H](O)COc1ccc(Cl)cc1 |  | inactive: 18.1% [at 25.6 µM] |
| COCCn1c(=O)c(-c2cccc(C#N)c2)nc2cnc(N3CCNCC3)nc21 | inconclusive [inhibitor, single point] |  |
| N=C1Sc2ccccc2C2=NCCCN12 | inconclusive [inhibitor, full curve] |  |
| COc1ccc2c(c1)OCc1c-2oc2cc(OC)ccc12 | inconclusive [inhibitor, single point] |  |
| COc1ccc(OC)c(S(=O)(=O)Nc2ccc(O)c3ccccc23)c1 | active: 25.1 µM |  |
| c1ccc(-c2nnc3n2NC(c2ccc4c(c2)OCO4)S3)cc1 (stereo unspecified) | inconclusive [inhibitor, partial curve] |  |
| COc1ccccc1NC(=O)c1cc2ccc(O)cc2o/c1=N\O |  | inactive: -18.9% |
| COc1ccc(CCN2C(=O)c3[nH]nc(-c4ccccc4O)c3C2c2cccc(O)c2)cc1OC (stereo unspecified) | inconclusive [inhibitor, single point] |  |
| COc1ccc(-c2cc(C(F)(F)F)nc(N3CCCCC3)n2)cc1OC | inconclusive [inhibitor, partial curve] |  |
| CCOC(=O)N1CCN(Cc2nc3c(c(=O)n(C)c(=O)n3C)n2Cc2ccccc2)CC1 | inconclusive [inhibitor, partial curve] |  |
| CC(CS(=O)(=O)c1cccc2cccnc12)N1CCCCC1 (stereo unspecified) | inconclusive [inhibitor, full curve, poor fit] |  |
| COc1ccc2cc3cc(C(=O)Nc4ccc5c(c4)OCCO5)oc3nc2c1 | inconclusive [inhibitor, single point] |  |
| Cc1nnc(NC(=O)Cc2cccs2)s1 | inconclusive [inhibitor, single point] |  |
